Data published in PubChem BioAssay AID1466 (National Center for Advancing Translational Sciences (NCATS), 2008).
Among all 200,000 compounds or so, about 10 (0.005%) were called active. The shares of active, inactive and inconclusive entries below differ from those in the screen. Calls come from the whole dose curve; as a rule, active = well fitted inhibition curve with a large enough effect; inconclusive = small, poorly fitted or top-dose-only effect, or effect the other way, or another doubt; inactive = no such curve, though single readings can be large or run the other way. Potencies beside an inconclusive call are fits to weak or partial responses and may not hold up.

These molecules were tested against Lysosomal alpha-glucosidase (Homo sapiens) (UniProt P10253) (assay: qHTS Assay for Inhibitors of Human alpha-Glucosidase as a Potential Chaperone Treatment of Pompe Disease). Settings: purified human GAA, 4-MU-alpha-glucoside fluorescence; activity change, negative = inhibition: at 76.9 µM (top of the series) unless noted.
Procedure, shortened: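 Enzyme (4 nM final) mixed with compound (up to 77 uM), then 4-MU-alpha-D-pyranoside (400 uM final) added; 20 min at room temperature, pH 5.0. Reaction stopped at pH 10, fluorescence read, AC50 derived by Hill fit.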
Potency is the fitted concentration of half-maximal effect; tags give direction and shape of the fitted curve.
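Throughout, for activity change, negative = inhibition: plate controls were uninhibited enzyme wells for no effect and no-enzyme background for full effect.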

Row | Compound | Potency | activity change, negative = inhibition
1 | O=C(CSc1nc2ccccc2c(=O)n1-c1ccc(SC(F)F)cc1)Nc1ccc(N2CCOCC2)cc1 | inconclusive: 50.1 µM [inhibitor, single point] | –
2 | Cc1ccc(-c2nc(SCC(=O)Nc3cc(S(=O)(=O)N4CCCCC4)ccc3Cl)n[nH]2)cc1 | inconclusive: 31.6 µM [inhibitor, single point] | –
3 | COc1cc(/C=C/C(=O)OCC(=O)c2c(N)n(C)c(=O)n(C)c2=O)ccc1OC(F)F | – | inconclusive: 5.32% [activator]
4 | Cc1ccccc1-c1nnnn1C1CCS(=O)(=O)C1 (centres undefined) | – | inconclusive: 10.9% [activator]
5 | COC(=O)c1sc2nc(C)cc(C)c2c1N | – | inconclusive: 29% [activator]
6 | COCCn1c(SCc2nc3cc(OC)c(OC)cc3c(=O)[nH]2)nnc1-c1ccncc1 | inconclusive: 10 µM [inhibitor, full curve] | –
7 | Cc1ccc(NC(=S)NNC(=O)c2cn(C)nc2C)cc1 | inactive | –
8 | Cc1cc(NS(=O)(=O)c2ccc(NC(=S)NC(=O)c3ccc(Cl)cc3Cl)cc2)no1 | inconclusive: 6.31 µM [inhibitor, full curve] | –
9 | O=C(Nc1ccc(Cl)cc1)C1CCC(=O)N1Cc1ccccc1Cl (centres undefined) | – | inconclusive: -15.2% [inhibitor]
10 | O=C(CN1C(=O)C2C3C=CC(C4CC34)C2C1=O)Nc1cccc2ncccc12 (centres undefined) | inconclusive: 44.7 µM [inhibitor, single point] | –
11 | CC(=O)Nc1ccc(OS(=O)(=O)c2ccc([N+](=O)[O-])cc2)cc1 | – | inconclusive: 6.54% [activator]
12 | O=C(Nc1ccc(N2CCOCC2)cc1)NC1CCCCC1 | inactive | –
13 | CSCCC(C(=O)N1C[C@]2(C)C[C@H]1CC(C)(C)C2)N1C(=O)c2ccccc2C1=O (some centres undefined) | inconclusive: 56.2 µM [inhibitor, single point] | –
14 | Cc1ccc(C)c(-n2c(=O)c(C#N)cc3c(=O)n4ccccc4nc32)c1 | inconclusive: 35.5 µM [activator, partial curve] | –
15 | NNc1nc(C(F)(F)F)nc2ccccc12 | inactive | –
16 | Cc1nn(CC(=O)NCCN2CCOCC2)c(C)c1[N+](=O)[O-] | inconclusive: 5.01 µM [inhibitor, partial curve] | –
17 | O=C(NCC1CCCN(C(=O)c2cscn2)C1)c1ccccc1Cl (centres undefined) | – | inconclusive: 10.3% [activator]
18 | O=c1cc(CN2CCN(S(=O)(=O)/C=C/c3ccccc3)CC2)c2ccc(O)cc2o1 | inconclusive: 35.5 µM [activator, partial curve] | –
19 | CCOC(=O)c1sc(NC(=O)CSc2nccc(C)n2)nc1C | – | inconclusive: 14% [activator]
20 | Cn1c(CN2CCN(c3ccc(Cl)cc3)CC2)nc2ccccc21 | inconclusive: 3.16 µM [inhibitor, single point] | –
21 | O=C(N/N=C/C1CCCCC1)c1cc(Cl)ccc1O | inactive | –
22 | Cc1cc2occ(CC(=O)NC3=NCCS3)c2cc1C(C)C | inconclusive: 1.12 µM [activator, full curve, poor fit] | –

Row | Compound | Potency | activity change, negative = inhibition
23 | O=c1c2ccccc2c(C=NCc2ccccn2)c(O)n1-c1ccccc1 | inconclusive: 31.6 µM [inhibitor, single point] | –
24 | O=C(c1cc2sccc2n1Cc1ccc(F)cc1)N1CCN(c2nc3ccccc3s2)CC1 | inconclusive: 31.6 µM [inhibitor, single point] | –
25 | O=C(NC1(C(F)(F)F)NC(=O)N(Cc2ccccc2)C1=O)c1cccnc1 (centres undefined) | inconclusive: 56.2 µM [inhibitor, single point] | –
26 | Cn1nnnc1SCC(=O)Nc1ccc(Oc2ccccc2)cc1 | inconclusive: 56.2 µM [inhibitor, single point] | –
27 | O=S(=O)(c1ccc(NC(=S)NCc2cccnc2)cc1)N1CCCCC1 | inconclusive: 50.1 µM [inhibitor, single point] | –
28 | O=C(Nc1ccccc1F)C1CCN(C(=O)Cc2ccccc2)CC1 | – | inconclusive: -15.6% [inhibitor]
29 | O=C(c1ccc2ccccc2c1)N1CCN(c2ccc([N+](=O)[O-])c(N3CCOCC3)c2)CC1 | inconclusive: 50.1 µM [inhibitor, single point] | –
30 | COc1ccc(-c2[nH]c(-c3ccccc3)nc2SCC(=O)Nc2nccs2)cc1 | – | inconclusive: 24.7% [activator]
31 | CC1(C)Cc2nc(N)c(C(=O)NCCO)cc2CO1 | inconclusive: 50.1 µM [activator, single point] | –
32 | O=C(COc1ccc2ccccc2c1)N/N=C/c1ccccn1 | – | inconclusive: 18.4% [activator]
33 | COCCNC(=O)C1CCN(C(=O)c2cc3sccc3n2Cc2ccc(F)cc2)CC1 | inconclusive: 3.55 µM [inhibitor, partial curve] | –
34 | COc1ccccc1Nc1ccc(Nc2ccccc2OC)nn1 | inconclusive: 11.2 µM [inhibitor, single point] | –
35 | O=C(c1cccc(Oc2c(Cl)cccc2[N+](=O)[O-])c1)N1CCCCC1 | inconclusive: 35.5 µM [inhibitor, partial curve] | –
36 | O=C(O)CCC(=O)NCC1OCCc2ccccc21 (centres undefined) | inconclusive: 1.26 µM [inhibitor, single point] | –
37 | CC(=O)c1cccc(NS(=O)(=O)c2ccc(N/C=C\C(=O)c3ccc(F)cc3)cc2)c1 | inconclusive: 5.62 µM [inhibitor, full curve] | –
38 | CSCCOC(=O)c1[nH]c2c(c1C)C(=O)CC(c1ccco1)C2 (centres undefined) | inactive | –
39 | N#C/C(=C1\CCCN1)c1nc2ccccc2c(=O)[nH]1 | – | inconclusive: -17.5% [inhibitor]
40 | CC(C)(C)OC(=O)NCCCC(CCCNC(=O)OC(C)(C)C)C(=O)O | inconclusive: 1.26 µM [inhibitor, full curve, poor fit] | –
41 | COc1ccccc1N1CCN(/N=C\C(Br)=C\c2ccccc2)CC1 | – | inconclusive: 13.9% [activator]
42 | C=C1c2cc(C)ccc2NC(=O)N1c1ccc(C)cc1 | inconclusive: 39.8 µM [activator, single point] | –
43 | CCCCOc1cc(C(=O)NCCN(CC)CC)c2ccccc2n1 | inconclusive: 11.2 µM [inhibitor, single point] | inconclusive: -2.89% [inhibitor] [at 15.4 µM]
